Assay results from PubChem BioAssay AID504832 (National Center for Advancing Translational Sciences (NCATS), 2011).
About 18,000 (5.8%) of roughly 310,000 compounds were called active. The inconclusive results got no clear call from the source; some entries with a clear call stand among them for comparison. The call rests on the fitted dose curve; in most records, active means well fitted inhibition curve with a large enough effect; inconclusive means small, poorly fitted or top-dose-only effect, or another doubt; inactive means no such curve, though single readings can be large or run the other way. No potency is given beside an inconclusive call; the fits are too rough.

Experiment: Primary qHTS for delayed death inhibitors of the malarial parasite plastid, 48 hour incubation
Conditions: P. falciparum luciferase growth in erythrocytes; series mostly up to 28.7 µM
Method in brief: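 Luminescence readout; reporter = integrated firefly luciferase in P. falciparum. RBC culture at 2% hematocrit, 0.1% parasitemia final, 37 C/5% CO2; decreased signal taken as growth inhibition.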
On the % scale 0 is the no-effect control and ±100 the full control effect; potency means the concentration at half of the fitted maximal effect; tags describe the fitted curve by direction and shape.

SMILES | Potency | activity change, negative = inhibition
O=C(COc1ccc(/C=N/NC(=O)c2cc3ccccc3o2)cc1Cl)Nc1ccccc1 | active: 10.4 µM | –
c1cncc(CNc2ncnc3ccc(-c4ccc5c(c4)OCO5)cc23)c1 | inconclusive [inhibitor, single point] | –
COc1ccccc1/C=C/C1(C(=O)NC2CCCC2)CC(=O)N1c1ccc(C)cc1 (configuration not stated) | inconclusive [inhibitor, single point] | –
CCOc1ncccc1C(=O)N1CCN(S(=O)(=O)c2ccc(Br)cc2Cl)CC1 | inactive | –
O=C(O)Cn1c(=O)c2c3c(sc2n(Cc2ccccc2)c1=O)CCCC3 | – | inactive: 9.55% [at 0.00184 µM]
O=S(=O)(NCC1CCCO1)c1ccc(S(=O)(=O)N(Cc2ccc(F)cc2)Cc2ccco2)cc1 (configuration not stated) | inconclusive [inhibitor, single point] | –
CN[C@H](C)CCC=C(C)C | active: 0.151 µM | –
CC(Oc1ccccc1)C(=O)NC1=NCCS1 (configuration not stated) | inactive | –
O=C(NC1CCCC1)c1cc(-c2ccccc2)nc2ccccc12 | inconclusive [inhibitor, single point] | –
Cc1ccccc1-c1cc(C(=O)NCc2cccs2)nn1CC1CC(c2cccc([N+](=O)[O-])c2)=NO1 (configuration not stated) | active: 3.29 µM | –
COc1cccc(N(C(=O)c2snc(C(N)=O)c2N)C(C(=O)NCC2CCCO2)c2cccs2)c1 (configuration not stated) | inconclusive [inhibitor, partial curve] | –
O=C(O)c1ccccc1OCCOc1ccccc1 | inactive | –
COc1cc2c(C(=O)N3CCN(c4ccccc4F)CC3)cn(C)c(=O)c2cc1OC | inconclusive [inhibitor, partial curve, poor fit] | –
O=C(Nc1ccc(Nc2ccncc2)cc1)c1ccc([N+](=O)[O-])cc1 | active: 2.62 µM | –
CC(C)=N/N=C(/c1ccc([N+](=O)[O-])cc1)C12CN3CN(CN(C3)C1)C2 | inactive | –
CCN(CC)CCCN(C(=O)Cn1nnc(-c2ccc(OC)c(OC)c2)n1)C(C(=O)NC(C)(C)C)c1ccc(F)cc1 (configuration not stated) | inconclusive [inhibitor, single point] | –
CC(=O)c1sc(C(C)(C)C)cc1NC(=O)c1ccccc1C(=O)O | inactive | –
COc1cc(/C=C2\SC(=S)N(NS(=O)(=O)c3ccc(C)cc3)C2=O)cc(OC)c1OC | active: 4.65 µM | –
Cc1cc(C)n(-c2ccc(C(=O)OCC(=O)NC(c3ccccc3)c3ccccc3)cc2)n1 | inactive | –
Cc1ccc(CNS(=O)(=O)c2ccccc2[N+](=O)[O-])cc1 | inactive | –
Cc1cc(/C=C2\SC(N)=NC2=O)c(C)n1-c1ccc(F)cc1 | inconclusive [inhibitor, partial curve, poor fit] | –
Cc1cc(C)c(C#N)c(SCc2ccc3c(c2)OCO3)n1 | inactive | –
Cc1ccc(-c2cc(C(=O)N3CC(C)CC(C)C3)c3ccccc3n2)o1 (configuration not stated) | inconclusive [inhibitor, partial curve] | –
CCC(=O)N1CCc2cc(Br)cc(S(=O)(=O)NCc3ccco3)c21 | inconclusive [inhibitor, partial curve] | –

SMILES | Potency | activity change, negative = inhibition
COc1ccc(-c2csc(Nc3ccccc3)[n+]2CC(O)c2ccc([N+](=O)[O-])cc2)cc1 (configuration not stated) | active: 1.31 µM | –
CCOc1cc(S(=O)(=O)N2CCCC2)c(C)cc1C | inconclusive [inhibitor, partial curve] | –
Oc1ccc(Cl)cc1CNCc1ccc(Cl)nc1 | inconclusive [inhibitor, partial curve, poor fit] | –
Cc1ccc(S(=O)(=O)N2CCOCC2)cc1C(=O)OCCOc1cccc(Cl)c1 | inconclusive [inhibitor, single point] | –
COc1cc(OC)cc(-c2c(-c3cccs3)c3cc(-c4ccc(N(C)C)nc4)ccc3n2C)c1 | inconclusive [inhibitor, single point] | –
O=C(CCl)Nc1ccc(S(=O)(=O)Nc2nccs2)cc1 | active: 2.33 µM | –
CC(=O)c1cc(NC(=O)c2cccc(C(F)(F)F)c2)c(=O)oc1/C=C/N(C)C | inactive | –
CCOc1ccc(NC(=O)CSc2nc(=O)n(Cc3cccnc3)c3c2CCC3)cc1 | inconclusive [inhibitor, partial curve] | –
O=C(NCc1ccco1)C1CCCN(c2ncnc3c2nc2n3CCCCC2)C1 (configuration not stated) | inconclusive [inhibitor, single point] | –
CCOC(=O)c1cc(CC)sc1NC(=O)c1cc(OCC)c(OCC)c(OCC)c1 | active: 8.28 µM | –
Cc1cc(=O)c2cc(C(=O)c3ccccc3)ccc2[nH]1 | active: 13.1 µM | –
COc1ccc(N2CCN(C(=O)CCc3nnc4ccc(N5CCC(C)CC5)nn34)CC2)cc1 | inactive | –
O=C1OCC(c2ccccc2)=C1c1ccc(S(=O)(=O)N2CCOCC2)s1 | inconclusive [inhibitor, partial curve, poor fit] | –
CC(NS(=O)(=O)c1ccc(OCC(=O)Nc2cccc([N+](=O)[O-])c2)cc1)c1ccccc1 (configuration not stated) | active: 10.4 µM | –
COc1ccccc1CNS(=O)(=O)c1c(C)noc1C | inconclusive [inhibitor, full curve, poor fit] | –
CCCCCc1cc(=O)oc2c(C(CCN3CCCC(C)C3)c3ccc(OC)cc3)c(OC)cc(OC)c12 (configuration not stated) | inconclusive [inhibitor, partial curve] | –
CS/C(=N\N(C)C(N)=O)c1ccccc1 | inactive | –
COC(=O)/C=C1/N/C(=N\c2nc(C)cc(C)n2)N(c2cccc(C)c2)C1=O | inconclusive [inhibitor, partial curve] | –
CSc1nc2ccccc2n1Cc1cccc([N+](=O)[O-])c1 | inconclusive [inhibitor, single point] | –
CCCCC(=O)N1C/C=C\C(c2ccc(OC)cc2)N(Cc2ccc(F)cc2)C(=O)C1 (configuration not stated) | inconclusive [inhibitor, partial curve, poor fit] | –
O=C(CSc1nnc2ccccn12)c1ccc(OC(F)F)cc1OC(F)F | inconclusive [inhibitor, single point] | –
COc1cc(CNCc2ccccn2)ccc1OCc1c(Cl)cccc1Cl | inconclusive [inhibitor, partial curve, poor fit] | –
COc1ccc(OC)c2[nH]c(=O)c(CCNC(=O)C(=O)c3c(C)[nH]c4ccccc34)cc12 | inconclusive [inhibitor, full curve, poor fit] | –
CC(C)C/C(O)=C/c1nc2cc(Cl)ccc2oc1=O | inconclusive [inhibitor, single point] | –

SMILES | Potency | activity change, negative = inhibition
Cc1cc(=O)[nH]c(NN)n1 | inconclusive [inhibitor, single point] | –
COC(CNC(=O)C1CCCN(S(=O)(=O)c2c(C)noc2/C=C/c2cccs2)C1)OC (configuration not stated) | inconclusive [inhibitor, partial curve] | –
COC(=O)C1=C(c2ccccc2OCc2ccccc2)C[C@@H]2CC[C@H]1N2C(=O)NCc1ccc(Br)cc1 | active: 10.4 µM | –
CCOC(=O)c1ccc(NC(=S)N(CCN(C)C)Cc2cccs2)cc1 | inactive | –
COc1ccc(CCNC(=O)CSc2nnc(-c3ccccc3)o2)cc1OC | inactive | –
C/C(=N\NC(=O)c1cc2ccccc2cc1O)c1cccs1 | inactive | –
COc1ccccc1N1CCN(C/C(C)=C/c2ccccc2)CC1 | inconclusive [inhibitor, partial curve, poor fit] | –
O=C(N/N=C/c1cn(Cc2ccccc2)c2ccccc12)c1cc(O)cc(O)c1 | inconclusive [inhibitor, single point] | –
CC(C)n1ncc2c(C(=O)Nc3ccc(CC#N)cc3)cc(C3CC3)nc21 | active: 14.7 µM | –
O=C(C[n+]1ccccc1)N/N=C/c1ccc(Cl)cc1 | inconclusive [inhibitor, single point] | –
CC(C)(C)c1ccc(O)c(N=Cc2cc(Br)ccc2O)c1 | active: 10.4 µM | –
CCCCC(=O)Nc1cccc(-c2nc3ncccc3o2)c1 | inconclusive [inhibitor, single point] | –
COc1ccc(OCc2nn3c(-c4ccccn4)nnc3s2)cc1 | inactive | –
O=C(COC(=O)c1cc(=O)[nH]c2ccc(Br)cc12)c1ccccc1 | inactive | –
CNC(=O)CSc1nnc(-c2ccccn2)n1Cc1ccco1 | inactive | –
CN1CCN(c2ccc(NC(=O)c3ccc(-c4ccc(Cl)cc4)o3)cc2)CC1 | active: 2.94 µM | –
COc1ccc(NC(=O)c2cc(-c3cc(OC)c(OC)c(OC)c3)nc3ccccc23)cc1OC | active: 13.1 µM | –
O=C(NC(Cc1c[nH]c2ccccc12)C(=O)N/N=C/c1ccc(Br)cc1)c1cccs1 (configuration not stated) | inconclusive [inhibitor, single point] | –
Cc1cc(C)n2nc(C(=O)NC(c3ccccc3)c3ccccc3)nc2n1 | inactive | –
CCOC(=O)c1sc(NC(=O)c2c(C)nn(Cc3ccccc3)c2C)cc1C | active: 9.28 µM | –
Cc1ccc(S(=O)(=O)NCCC(=O)N2CCN(S(=O)(=O)c3ccccc3)CC2)cc1C | inconclusive [inhibitor, single point] | –
COc1ccc(C2CC(c3ccccc3)=NN2C(=O)COC(=O)c2cccnc2)cc1 (configuration not stated) | inconclusive [inhibitor, single point] | –
COc1ccccc1CC1(C)NC(=O)N(CC(=O)N2CC(C)OC(C)C2)C1=O (configuration not stated) | inactive | –
CCCCCC(C)N (configuration not stated) | inconclusive [inhibitor, single point] | –
